Test results as given in paper PMC6919601, “Identification of Plasmodium dipeptidyl aminopeptidase allosteric inhibitors by high throughput screening” (PLoS ONE, 2019).
Out of some 110,000 compounds screened, about 230 (0.21%) showed an effect of 50% or more. The list shows a part of the results.

These compounds were tested against DPAP1 (Plasmodium falciparum, UniProt Q8IIJ9) (assay: primary screen, percent inhibition; read by cleavage of a fluorogenic dipeptide substrate; higher = more effect of the substance).
Set-up: species or system P. falciparum D10 trophozoite lysates; single well
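Further: 30 min substrate incubation versus DMSO and 10 µM JCP410 controls.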

DPAP1, sequence (Q8IIJ9 whole entry, looked up): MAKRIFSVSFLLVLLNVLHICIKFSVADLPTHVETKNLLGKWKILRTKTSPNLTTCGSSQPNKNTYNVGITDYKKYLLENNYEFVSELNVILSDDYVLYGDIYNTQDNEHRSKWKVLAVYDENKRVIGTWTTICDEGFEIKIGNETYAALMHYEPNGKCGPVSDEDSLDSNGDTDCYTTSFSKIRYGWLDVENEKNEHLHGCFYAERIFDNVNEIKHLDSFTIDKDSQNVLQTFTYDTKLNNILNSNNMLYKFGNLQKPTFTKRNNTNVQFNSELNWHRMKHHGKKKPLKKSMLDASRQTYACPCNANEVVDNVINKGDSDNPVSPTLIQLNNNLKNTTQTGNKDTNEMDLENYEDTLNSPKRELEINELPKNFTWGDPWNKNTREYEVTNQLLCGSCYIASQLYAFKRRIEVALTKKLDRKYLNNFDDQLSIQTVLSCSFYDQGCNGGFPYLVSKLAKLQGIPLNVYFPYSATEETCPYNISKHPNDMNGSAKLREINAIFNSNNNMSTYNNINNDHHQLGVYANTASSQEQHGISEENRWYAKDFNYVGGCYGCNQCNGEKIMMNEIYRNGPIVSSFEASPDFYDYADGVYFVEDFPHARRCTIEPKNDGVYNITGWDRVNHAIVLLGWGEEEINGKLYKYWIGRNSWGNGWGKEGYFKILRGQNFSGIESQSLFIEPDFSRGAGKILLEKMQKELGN

| Compound | % Inhibition @ 10 uM [%] |
| --- | --- |
| Cc1ccc(CN2CCCN(C)CC2)s1 | -7.34 |
| COc1cccc(C2NCCc3c2[nH]c2ccccc32)c1O (stereo not drawn) | 3.16 |
| O=C1c2oc3ccc(Cl)cc3c(=O)c2C(c2ccc(O)cc2)N1Cc1ccc2c(c1)OCO2 (stereo not drawn) | -1.33 |
| CCN(CC)CCNC(=O)CSCc1ccc(C)cc1 | 0.514 |
| O=C(CC(c1ccccc1)c1ccccc1)NCc1cccs1 | -0.132 |
| c1n[nH]c2c1CNCC2 | 0.708 |
| N#Cc1cccc(CSc2nc3ncccc3o2)c1 | 1.81 |
| Cc1ccc(-c2nn(CC(=O)NC3CCCC3)c(=O)c3ccccc23)cc1 | -1.68 |
| O=C(O)C1C2C=CC(C2)C1C(=O)N1CC=C(c2ccccc2)CC1 (stereo not drawn) | -1.1 |
| CCOC(=O)c1c(S(=O)(=O)N2CCCC(C)C2)c(C)n(C)c1C (stereo not drawn) | -2.81 |
| O=C(O)C1CCCCC1C(=O)Nc1ccc(Cl)cc1 (stereo not drawn) | -2.19 |
| COc1ccc(CO[C@@H]2O[C@H](CO)[C@@H](O)[C@H](O)[C@H]2NC(C)=O)cc1OC | -0.0235 |
| CNc1oc(/C=C/c2ccccc2OC)nc1C#N | 2.54 |
| COC(=O)/C(=C\C(C#N)=C/N(C)C)C(C)=O | 7.24 |
| Cn1c2c(c(=O)n(C)c1=O)CN(CCc1ccco1)CN2 | -1.08 |
| O=S(=O)(NCc1ccc(Cl)cc1)c1ccc2c(c1)OCCO2 | -4.69 |
| O=C(CCc1ccc(S(=O)(=O)NCc2ccccc2)cc1)N1CCCCCC1 | 3.53 |
| COc1ccc2nc(N3CCC(C(=O)NCC(C)CN4CCC(C)CC4)CC3)sc2c1 (stereo not drawn) | 4.79 |
| CC(=O)N1N=C(c2ccc(Br)cc2)CC1c1ccco1 (stereo not drawn) | -6.27 |
| Cc1ccc(-c2onc(C)c2C)cc1S(=O)(=O)N1CCc2ccccc2C1 | -6.26 |
| N#Cc1cc2c(nc1SCC(=O)NCc1ccc3c(c1)OCO3)CCCCC2 | -3.16 |
| COc1ccc(CCNC(=O)CN(C)S(=O)(=O)c2cccc3nsnc23)cc1OC | 0.317 |
| CCC(C)NC(=O)C1CCCN(c2nnc(C)c3c(C)n(-c4ccc(Cl)cc4)nc23)C1 (stereo not drawn) | 5.2 |
| Cc1nc2cc(-c3ccccc3)nn2c(C)c1CC(=O)NCCN1CCOCC1 | -2.67 |
| Cn1c(=O)c2nc(NCCN3CCOCC3)[nH]c2n(C)c1=O | 3.24 |
| CCOC(=O)C1=C(C)OC(N)=C(C#N)C1c1cccc(Cl)c1 (stereo not drawn) | -5.17 |

| Compound | % Inhibition @ 10 uM [%] |
| --- | --- |
| COc1ccc2[nH]c3c(=O)n(Cc4ccc(C(=O)NCC5CCCO5)cc4)c(=S)[nH]c3c2c1 (stereo not drawn) | -7.65 |
| CSc1nc2ccccc2c(=O)n1Cc1cccc(Cl)c1 | 2.78 |
| CN(Cc1ccccc1)C(=O)C1CCN(S(=O)(=O)c2cccc3nonc23)CC1 | -0.128 |
| Fc1cccc(NCc2cccc(Oc3ccccc3)c2)c1 | -3.27 |
| COc1c2nc(C)cc(C)c2cc2c(C)c(C)[nH]c12 | -4.24 |
| CN(C1=C(Cl)C(=O)N(c2ccccc2)C1=O)c1ccccc1 | -3.19 |
| COc1ccc(CN(C)C2CCN(C)CC2)c(C)c1C | 3.8 |
| CCC(CO)NC(=O)Nc1ccc2ccccc2c1 (stereo not drawn) | -1.07 |
| CCCc1nc(O)c(C#N)c2c1COC(C)(C)C2 | -1.2 |
| O=C(NCC(c1cccnc1)N1CCOCC1)c1cccs1 (stereo not drawn) | 4.51 |
| CCC(C(=O)NCc1cccc(Cl)c1)n1nc(C)c2c(C)n(-c3ccccc3)nc2c1=O (stereo not drawn) | -8.35 |
| CC(C)(C)NS(=O)(=O)c1cccc(C(F)(F)F)c1 | 2.38 |
| CCOc1c(Cl)cc(C(=O)N(Cc2ccccc2F)C2CCS(=O)(=O)C2)cc1Cl (stereo not drawn) | -3.12 |
| Cc1cc(C(=O)NCc2ccccc2)no1 | -0.591 |
| Cc1ccc(-c2nc3scc(CCNC(=O)c4ccc(C)c(C)c4)n3n2)cc1 | 0.483 |
| Cc1ccc(S(=O)(=O)NCc2ccc(C(=O)NCCc3ccc(Cl)cc3)cc2)cc1 | -3.58 |
| CCC(C(=O)O)n1cc(C=O)c2ccccc21 (stereo not drawn) | 3.24 |
| CC1=C(C(=O)OCC2CCCO2)C(c2ccccc2F)NC(=O)N1 (stereo not drawn) | -1.56 |
| O=C(NCc1ccccn1)c1cc(O)nc2ccc(Br)cc12 | -1.79 |
| CCOC(=O)C1CCN(Cc2cc(C)ccc2C)CC1 | -0.192 |
| N#Cc1ccc(NC(=O)Cc2ccccc2)cc1 | -3.95 |
| CCOc1ccc(CN2CCN(c3ccc([N+](=O)[O-])cc3)CC2)cc1 | -5.41 |
| O=C(CCc1nnc2ccc(N3CCCC3)nn12)NCc1ccc(CN2CCOCC2)o1 | -7.74 |
| Cc1cc(C)nc(/N=C(\N)Nc2ccccc2C(F)(F)F)n1 | -6.7 |
| Oc1cccc(CN2CCN(c3ccccc3F)CC2)c1 | 3.8 |
